Results reported in PubChem BioAssay AID686979 (National Center for Advancing Translational Sciences (NCATS), 2013).
The whole screen tested about 420,000 compounds, of which about 50,000 (12%) were called active. Inconclusive results, whose numbers are uncertain, are shown with a selection of clear calls. Calls come from the whole dose curve; as a rule, active = well fitted inhibition curve with a large enough effect; inconclusive = small, poorly fitted or top-dose-only effect; inactive = flat fitted curve, though single readings scatter. Potencies of inconclusive entries are left out as doubtful fits.

test: qHTS for Inhibitors of human tyrosyl-DNA phosphodiesterase 1 (TDP1): qHTS in cells in presence of CPT; settings: chicken DT40 Tdp1-/-;hTDP1 cells + 20 nM CPT, ATP luminescence, 48 h; activity change, negative = growth inhibition: at 46.2 µM (top of the series); note: nearly all actives have a fitted effect of over 55% in size
In short: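 Chicken DT40 Tdp1-/- cells complemented with human TDP1, 400 cells/well, exposed to compounds plus 20 nM camptothecin for at least 48 h at 37 C; viability read as ATP content by CellTiter-Glo luminescence.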
% is set by controls: 0 for no effect and ±100 for the full control effect; potency is the fitted concentration of half-maximal effect; tags give direction and shape of the fitted curve.

**Q.** Which activity change, negative = growth inhibition does the source give for `CC(C)CCOc1ccc(/C=N/N2C(=O)CSC2=S)cc1` here?
**A.** Its activity change, negative = growth inhibition is inconclusive: -32.9% [inhibitor].

**Q.** With `COC(=O)Oc1ccc(/C=N/NS(=O)(=O)c2ccccc2)cc1OC` as the compound, how does the Potency read?
**A.** The Potency was inconclusive [inhibitor, single point].

**Q.** With `CC12CCC=CC1=C(C=O)C1C2CCC2(C)C(O)CCC12` (configuration not stated) as the compound, how does the Potency read?
**A.** Its Potency is inconclusive [inhibitor, single point].

**Q.** With `COc1ccc(S(=O)(=O)N2CCc3ccccc32)cc1C(=O)Nc1cc(S(C)(=O)=O)ccc1Cl` as the compound, how does the Potency read?
**A.** Its Potency is active: 9.2 µM.

**Q.** Which Potency does the source give for `CCn1c(N2CCN(C(=O)C34CC5CC(CC(C5)C3)C4)CC2)nc2ccccc21` here?
**A.** Its Potency is active: 29.1 µM.

**Q.** With `Cc1ccc(NC(=O)c2ccc(OCC3CCCO3)cc2)c(C)c1` (configuration not stated) as the compound, how does the “activity change, negative = growth inhibition” value read?
**A.** Its value is inactive: 5.85%.

**Q.** Which Potency does the source give for `CC(=O)NCCNc1nc2cc(-c3ccc(Cl)cc3C)sc2c(=O)n1C` here?
**A.** The Potency was inconclusive [inhibitor, single point].

**Q.** For `CCCN(CCC)C(=O)C1CCCN(S(=O)(=O)c2cc(Br)cc3c2N(C(=O)CC)CC3)C1` (configuration not stated), which Potency is on record?
**A.** Its Potency is inconclusive [inhibitor, partial curve].

**Q.** Which Potency does the source give for `NC(=O)c1ccccc1NC(=O)/C=C/c1c(Cl)cccc1Cl` here?
**A.** Its Potency is inconclusive [inhibitor, single point].

**Q.** For `O=C(Nc1cccc(Cl)c1N1CCOCC1)c1cccs1`, which Potency is on record?
**A.** Its Potency is inconclusive [inhibitor, partial curve, poor fit].

**Q.** With `Cc1cc(C)c(S(=O)(=O)N2CCCCC2CCNC(=O)C(=O)NCc2ccco2)c(C)c1` (configuration not stated) as the compound, how does the Potency read?
**A.** The Potency was inconclusive [inhibitor, single point].

**Q.** For `O=C(Nc1ccc(-c2nc3cc(NC(=O)c4ccc(Cl)cc4)ccc3o2)cc1)c1ccc(Cl)cc1`, which “activity change, negative = growth inhibition” value is on record?
**A.** Its value is inactive: -0.437%.

**Q.** Which Potency does the source give for `Cc1cc(C)cc(NC(=O)CCc2c(C)nc3c(c2C)c(=O)n(C)c(=O)n3C)c1` here?
**A.** Its Potency is inconclusive [inhibitor, single point].

**Q.** For `Oc1ccc[n+](CC(O)c2ccccc2)c1` (configuration not stated), which “activity change, negative = growth inhibition” value is on record?
**A.** Its value is inactive: 18.9%.

**Q.** Which Potency does the source give for `CCN(C(=O)COC(=O)c1cc2c(s1)CCC(C)C2)c1c(N)n(Cc2ccccc2)c(=O)[nH]c1=O` (configuration not stated) here?
**A.** The Potency was active: 16.4 µM.

**Q.** For `COc1ccc(NC(=O)N(C)C[C@@H]2Oc3cc(C#CCN(C)C)ccc3S(=O)(=O)N([C@H](C)CO)C[C@H]2C)cc1`, which “activity change, negative = growth inhibition” value is on record?
**A.** The value was inactive: 10.9%.

**Q.** With `CCc1ccc(-n2nc(CO)c(C(=O)NCc3cccnc3)n2)cc1` as the compound, how does the Potency read?
**A.** The Potency was inconclusive [inhibitor, single point].

**Q.** Which Potency does the source give for `CCOC(=O)c1[nH]c2c(c1-c1ccc(OC)cc1)C(=O)CC(c1ccc(OC)c(OC)c1)C2` (configuration not stated) here?
**A.** Its Potency is inconclusive [inhibitor, single point].

**Q.** For `Cc1ccc(-c2onc(C)c2C)cc1S(=O)(=O)Nc1cccc(Cl)c1C`, which Potency is on record?
**A.** Its Potency is inconclusive [inhibitor, single point].

**Q.** Which Potency does the source give for `COc1ccccc1NC(=O)COC(=O)c1c(NC(C)=O)sc(C)c1C` here?
**A.** The Potency was inconclusive [inhibitor, single point].

**Q.** Which Potency does the source give for `CCc1nc2ccc(C(=O)NCc3ccc(OC)cc3)cn2c1N(CCC(C)C)CCN(C)C` here?
**A.** The Potency was inconclusive [inhibitor, single point].

**Q.** With `Fc1cccc2sc(Nc3nc4cc5c(cc4s3)OCO5)nc12` as the compound, how does the Potency read?
**A.** Its Potency is active: 20.6 µM.

**Q.** For `Cc1ccc(CCNC(=O)CCn2nc(-c3ccc(Cl)cc3)ccc2=O)cc1`, which Potency is on record?
**A.** The Potency was inconclusive [inhibitor, single point].

**Q.** With `Cn1c(/C=N/Nc2nc3ccccc3[nH]2)nc2ccccc21` as the compound, how does the Potency read?
**A.** Its Potency is inconclusive [inhibitor, single point].

**Q.** For `O=S(=O)(c1ccc(Br)cc1)c1nnn2c1nc(NCCc1ccccc1)c1sccc12`, which Potency is on record?
**A.** The Potency was inconclusive [inhibitor, single point].

**Q.** Which Potency does the source give for `CCc1nc2ccc(C(=O)N(C)CC(=O)Nc3cccc(F)c3)cc2nc1CC` here?
**A.** The Potency was inconclusive [inhibitor, single point].

**Q.** Which “activity change, negative = growth inhibition” value does the source give for `NS(=O)(=O)c1ccc(NC2=CC(c3ccc([N+](=O)[O-])cc3)N(c3ccc(S(N)(=O)=O)cc3)C2=O)cc1` (configuration not stated) here?
**A.** Its value is inactive: -1.79%.

**Q.** For `CCN1CCN(C(=O)c2ccc3c(c2)c(C)c(C)n3Cc2ccccc2)CC1`, which Potency is on record?
**A.** Its Potency is inconclusive [inhibitor, single point].

**Q.** Which “activity change, negative = growth inhibition” value does the source give for `CC(=O)Nc1ccc(N/C=C/C(=O)c2ccc(C)cc2)cc1` here?
**A.** The value was inactive: 2.82%.

**Q.** For `CSc1nc2ccc(NS(=O)(=O)c3c(Cl)cccc3Cl)cc2s1`, which “activity change, negative = growth inhibition” value is on record?
**A.** Its value is inactive: -12.3%.

**Q.** For `O=C(NCC1(c2ccccc2)CCCC1)c1cccc(Br)c1`, which Potency is on record?
**A.** Its Potency is active: 14.6 µM.

**Q.** Which Potency does the source give for `Nc1cc(=O)[nH]c(SCCSc2cc(Cl)ccc2Cl)n1` here?
**A.** Its Potency is inconclusive [inhibitor, partial curve].

**Q.** With `COc1ccc(/C=C2\CCC/C(=C\C=N\N(C)C)C2=O)cc1` as the compound, how does the Potency read?
**A.** The Potency was inconclusive [inhibitor, single point].

**Q.** With `Cc1ccc2oc(=O)n(CCCOc3ccccc3)c2c1` as the compound, how does the “activity change, negative = growth inhibition” value read?
**A.** The value was inactive: -16.6%.

**Q.** With `COc1ccc(OC)c(CNC(=O)C2CCC(=O)N(CCCN3CCCC3=O)C2)c1` (configuration not stated) as the compound, how does the Potency read?
**A.** The Potency was inconclusive [inhibitor, single point].

**Q.** For `Cc1ccc(C)c(OCC(=O)NNC(=O)c2ccc(NC(=O)C3CC3)cc2)c1`, which “activity change, negative = growth inhibition” value is on record?
**A.** The value was inactive: -6.72%.

**Q.** With `COc1cc(NC(C)CCCNC(C)C)c2ncccc2c1OC` (configuration not stated) as the compound, how does the Potency read?
**A.** The Potency was inconclusive [inhibitor, partial curve].

**Q.** For `CCOc1ccc(CCN2C(=O)C(=O)N([C@@H](CC(C)C)CN3CCC[C@@H]3CN3C(=O)C(=O)NC[C@@H]3Cc3ccccc3)C[C@@H]2CC(C)C)cc1`, which Potency is on record?
**A.** Its Potency is inconclusive [inhibitor, single point].

**Q.** Which Potency does the source give for `Cc1cn2c(=O)c(S(=O)(=O)Nc3ccc(N4CCOCC4)cc3)c(C)nc2s1` here?
**A.** The Potency was inconclusive [inhibitor, partial curve].

**Q.** Which Potency does the source give for `O=C(NC1CCCCC1)C(c1ccccc1F)N(C(=O)c1csnn1)C1CCCC1` (configuration not stated) here?
**A.** Its Potency is inconclusive [inhibitor, partial curve, poor fit].

**Q.** Which Potency does the source give for `O=C(COC(=O)c1cccc(S(=O)(=O)NCc2ccccc2)c1)c1ccc2c(c1)OCCO2` here?
**A.** Its Potency is inconclusive [inhibitor, single point].

**Q.** With `COc1ccc(CCNC(=O)COC(=O)Cc2c[nH]c3ccccc23)cc1OC` as the compound, how does the Potency read?
**A.** The Potency was inconclusive [inhibitor, single point].
